# Data published in PubChem BioAssay AID924 (National Center for Advancing Translational Sciences (NCATS), 2007).
# Values joined by “and” are separate entries in the source; they are usually repeats but may differ in a detail not shown here. Equal entries are not always repeated. The whole screen tested about 130,000 compounds, of which about 1,200 (0.92%) were called active. The inconclusive results got no clear call from the source; some entries with a clear call stand among them for comparison. Calls come from the whole dose curve; as a rule, active = well fitted cell-killing curve with a large enough effect; inconclusive = small, poorly fitted or top-dose-only effect; inactive = no such curve, though single readings can be large or run the other way. Potencies beside an inconclusive call are fits to weak or partial responses and may not hold up.
# Experiment: qHTS Screen for Compounds that Selectively Target Cancer Cells with p53 Mutations: Cytotoxicity of p53ts Cells at the Permissive Temperature; note: nearly all actives have a fitted effect of over 55% in size;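 for activity change, negative = cytotoxicity: 0% = DMSO and -100% = full killing by reference compound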
# Conditions: H1299-p53A138V at 32C, ATP luminescence viability, 24 h; activity change, negative = cytotoxicity: at 46.1 µM (top of the series)
# Outline: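 Cells: H1299 p53ts (A138V), 600/well, pre-incubated 16–30 h at 37C. Cpd up to 46 uM, 24 h, 32C. Readout: ATPlite luminescence, 20 min RT. Normalization: DMSO vs tamoxifen 100 uM. AC50 by Hill equation.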
# Potency is the fitted concentration of half-maximal effect; tags give direction and shape of the fitted curve.
Structure (SMILES),Potency,"activity change, negative = cytotoxicity"
c1ccc2nc(-c3nc4ccccc4[nH]3)ccc2c1,active: 3.16 µM,–
C=CCc1ccccc1OCCSc1nc(-c2ccc(C(C)(C)C)cc2)nc2cc(=O)[nH]n12,"inconclusive: 31.6 µM [cytotoxic, single point]",–
Clc1ccccc1-c1nn2c(-c3ccncc3)nnc2s1,–,inactive: 2.06%
Cc1ccn2c(Nc3ccccc3C)c(-c3ccccn3)nc2c1,"inconclusive: 15.8 µM [cytotoxic, partial curve]",–
O=C1c2[nH]nc(-c3ccccc3O)c2C(c2ccc(Cl)cc2)N1Cc1ccco1 (stereo not given),"inconclusive: 31.6 µM [cytotoxic, single point]",–
CCc1ccc(-n2c(SCc3ccccc3F)nc3[nH]ncc3c2=O)cc1,"inconclusive: 31.6 µM [cytotoxic, single point]",–
COc1ccc(N2CCN(C(=O)CCS(=O)(=O)c3cc4c(cc3Cl)NC(=O)CO4)CC2)cc1,–,inactive: -11.6%
Cc1ccc(/C=c2\sc3nc(-c4cccnc4)nn3c2=O)cc1,–,inactive: -17.6%
CCOC(=O)C1CCN(C(=O)C2COc3ccccc3C2)CC1 (stereo not given),–,inactive: 3.47%
COc1ccccc1N1CCN(C(CNC(=O)C2CCCCC2)c2cccnc2)CC1 (stereo not given),"inconclusive: 12.6 µM [cytotoxic, single point]",–
O=C1OC(Nc2ccc3c(c2)OCO3)c2ccccc21 (stereo not given),"inconclusive: 25.1 µM [cytotoxic, single point]",–
C1=C(CN2CCOCC2)COc2c1cccc2OC[C@@H]1CNCCO1,–,inactive: 0.905%
COc1ccc(-c2nc3c(C#N)c[nH]n3c2NC2CCCCC2)c(OC)c1,–,inactive: -5.29%
O=C1c2cccnc2C(=O)N1c1cccc(-c2nc3ccccc3o2)c1,"inconclusive: 5.01 µM [cytotoxic, partial curve]",–
O=c1cc(-c2ccccc2)oc2cc(O)cc(O)c12,"inconclusive: 25.1 µM [cytotoxic, single point] and inconclusive: 31.6 µM [cytotoxic, single point]",–
CCOC(=O)c1c(C)c(-c2ccccc2)n(CC(=O)Nc2cc(OC)cc(OC)c2)c1C,"inconclusive: 28.2 µM [cytotoxic, single point]",–
O=S(=O)(c1ccccc1)N1CCC2(CCCN(c3ccccc3)C2)CC1,–,inactive: -6.88%
COc1ccccc1S(=O)(=O)Cc1ccc(C(=O)N2CCN(c3ccc(C)cc3)C(C)C2)o1 (stereo not given),"inconclusive: 31.6 µM [cytotoxic, single point]",–
Cc1nnc(NC(=O)c2nc(S(=O)(=O)Cc3ccccc3)ncc2Cl)s1,"inconclusive: 31.6 µM [cytotoxic, single point]",–
CC1(C(=O)NCCCNc2ncc(C(F)(F)F)cc2Cl)C=CC2(CCCCC2)N1C(=O)c1ccccc1 (stereo not given),"inconclusive: 31.6 µM [cytotoxic, single point]",–
CCOC(=O)c1cc(-c2ccccc2)n(CC(=O)NCc2ccccc2OC)c1C,"inconclusive: 0.005 µM [cytotoxic, full curve, poor fit]",–
CCCc1nnc(NC(=O)c2nc(S(=O)(=O)Cc3ccc(C)cc3)ncc2Cl)s1,"inconclusive: 25.1 µM [cytotoxic, single point]",–
Fc1c(F)c(F)c(CSc2nc3ccccc3[nH]2)c(F)c1F,"inconclusive: 10 µM [cytotoxic, partial curve]",–
Cc1cc(C)c2c(=O)cc(CSCC(=O)Nc3nnc(C)s3)[nH]c2c1,"inconclusive: 3.55 µM [cytotoxic, single point]",–

Structure (SMILES),Potency,"activity change, negative = cytotoxicity"
O=C(Nc1ccc2c(c1)CCC2)C1CCCN(c2ncccn2)C1 (stereo not given),–,inactive: 5.48%
CN1CCN(Cc2nc3c(c(=O)[nH]c(=O)n3C)n2Cc2c(F)cccc2Cl)CC1,–,inactive: 4.1%
C=CC(C)(C)c1[nH]c2ccccc2c1C1=C(O)C(=O)C(c2c[nH]c3c(CC=C(C)C)cccc23)=C(O)C1=O,"inconclusive: 25.1 µM [cytotoxic, partial curve]",–
Cc1oc2c(c1C(=O)Nc1ccc(OC(F)(F)F)cc1)C1=NCCN1C=N2,–,inactive: -1.55%
CNC1=C(Br)C(=O)c2ccncc2C1=O,active: 0.794 µM,–
CN(C)c1ccc(-c2cc(-n3ccnc3)ncn2)cc1,"inconclusive: 10 µM [cytotoxic, single point]",–
Cc1ccccc1C(=O)Nc1cccc(NC(=O)c2ccc(C(C)(C)C)cc2)c1,active: 10 µM,–
CCn1c(=N)c(C(=O)OC)cc2c(=O)n3ccccc3nc21,–,inactive: -1.18%
CCC(C(=O)NC1CCCCC1)n1c(SCc2ccccc2F)nc2ccncc21 (stereo not given),"inconclusive: 10 µM [cytotoxic, partial curve]",–
Cc1ccc2scc(N3CCCCC3C)c(=O)c2c1 (stereo not given),active: 10 µM,–
Cc1ccc(CNc2nc(-c3ccco3)nn2C(=O)c2ccccc2[N+](=O)[O-])cc1,"inconclusive: 12.6 µM [cytotoxic, single point]",–
O=S(=O)(CCSc1nc2ccccc2o1)c1nc2ccccc2s1,"inconclusive: 31.6 µM [cytotoxic, single point]",–
Cc1cc(NC(=O)Nc2ccc3c(ccn3C)c2)sn1,"inconclusive: 15.8 µM [cytotoxic, partial curve]",–
O=C(O)c1cc(-c2cccs2)nc2cc3c(cc12)OCCO3,"inconclusive: 10 µM [cytotoxic, partial curve]",–
O=C(Nc1ccc(-c2nc3cc(Cl)ccc3o2)cc1)c1cc(Br)ccc1Cl,"inconclusive: 12.6 µM [cytotoxic, single point]",–
Cc1ccc(C(=O)NCC(c2ccc(Cl)cc2)N2CCCCC2)cc1 (stereo not given),"inconclusive: 2.82 µM [cytotoxic, full curve, poor fit]",–
COc1cccc(CNC(=O)c2cccc(N3CCCS3(=O)=O)c2)c1,–,inactive: -1.19%
CC(=O)c1ccc(Oc2ncnc3sccc23)c(CN2CCOCC2)c1,–,inactive: -0.878%
C/C(=N/Nc1ccc2ccccc2n1)c1ccccc1O,active: 3.16 µM,–
Cc1ccc(N(C(=O)C2CCCC2)C2C=CS(=O)(=O)C2)cc1C (stereo not given),"inconclusive: 0.199 µM [cytotoxic, full curve, poor fit]",–
COc1ccc(-c2c(O)c3c(OC)c4c(cc3oc2=O)OC(C)(C)CC4)cc1,"inconclusive: 31.6 µM [cytotoxic, single point]",–
COCCn1c(COc2ccc(C)cc2)nc2ccccc21,"inconclusive: 12.6 µM [cytotoxic, single point]",–
COc1ccc(Nc2nc3c(S(=O)(=O)c4ccccc4)nnn3c3ccc(Cl)cc23)cc1,"inconclusive: 10 µM [cytotoxic, partial curve]",–
COC(=O)c1ccc(CSc2nc(N)cc(N)n2)cc1,active: 12.6 µM,–

Structure (SMILES),Potency,"activity change, negative = cytotoxicity"
CN(CC(=O)Nc1ccc2c(c1)OCCO2)S(=O)(=O)c1ccc(Br)s1,"inconclusive: 1.58 µM [cytotoxic, partial curve]",–
COc1ccccc1-n1cc(C(=O)NCC(=O)N2CCN(c3ccccn3)CC2)c2ccccc2c1=O,"inconclusive: 15.8 µM [cytotoxic, partial curve]",–
CCS(=O)(=O)c1ncc(Cl)c(C(=O)Nc2ccc(S(=O)(=O)N(C)c3ccccc3)cc2)n1,"inconclusive: 31.6 µM [cytotoxic, single point]",–
CC1CCCCN1CCNC(=O)c1ccc(Cn2c(SCc3ccccc3)nc3cccnc32)cc1 (stereo not given),active: 10 µM,–
Nn1c(Nc2ccccc2)nc2ccccc21,"inconclusive: 12.6 µM [cytotoxic, partial curve]",–
COc1ccc(OC2C=CC(c3ccccc3)OC2CO)cc1 (stereo not given),–,inactive: 3.04% [at 9.22 µM]
COc1ccc(NC(=O)CCc2c(C)nn(-c3ccc(N4CCCCC4)nn3)c2C)cc1Cl,active: 15.8 µM,–
COc1cccc(NC(=O)Cn2c(=O)n(CCC(=O)NCCc3ccc(Cl)cc3)c(=O)c3ccccc32)c1,"inconclusive: 10 µM [cytotoxic, partial curve]",–
O=C(NCCCN1CCCCCC1)c1ccc2c(c1)sc1nc(-c3ccccc3)cn12,"inconclusive: 22.4 µM [cytotoxic, single point]",–
CCNC(=O)c1ccc(NC(=O)N2CCCCc3ccccc32)cc1,–,inactive: 6.85%
CC(=O)c1ccc(N2CCN(S(=O)(=O)c3ccc(-c4coc(C)n4)cc3)CC2)cc1,–,inactive: -1.97%
Nc1ncn([C@H]2O[C@@H](CO)[C@@H](O)[C@@H]2O)c(=O)n1,"inconclusive: 3.98 µM [cytotoxic, partial curve]",–
Cc1ccccc1N1C(=O)c2ccccc2NC1c1ccncc1 (stereo not given),–,inactive: 5.21%
CCC(=O)Nc1ccc(NC(=O)c2ccco2)cc1,active: 12.6 µM,–
Cc1ccc2oc(-c3ccc(NC(=O)CCC(=O)O)cc3)nc2c1,"inconclusive: 10 µM [cytotoxic, partial curve]",–
COc1ccccc1NC(=O)N1CCCC1C(=O)Nc1ccc2c(c1)OCO2 (stereo not given),"inconclusive: 14.1 µM [cytotoxic, single point]",–
O=C(Nc1ccc2nc(SCC(=O)N3CCOCC3)sc2c1)c1cccc(Br)c1,"inconclusive: 31.6 µM [cytotoxic, single point]",–
Cc1ccc(-c2cc(C(=O)Oc3ccc(C#N)cc3)no2)cc1,"inconclusive: 31.6 µM [cytotoxic, single point]",–
O=C(CSc1nc(=O)[nH]c2c1CCC2)NCc1ccccc1Cl,–,inactive: 0.322%
Brc1cccc(-c2nnc(-c3ccccc3)o2)c1,"inconclusive: 15.8 µM [cytotoxic, single point]",–
Cc1ccccc1CSc1ccc(-c2cccs2)nn1,"inconclusive: 12.6 µM [cytotoxic, partial curve]",–
COc1ccc(C2=NOC(C(=O)Nc3cc(Br)ccc3O)C2)cc1OC (stereo not given),"inconclusive: 31.6 µM [cytotoxic, single point]",–
